Experimental findings from the RNAGym collection of RNA variant scans (doi:10.7554/elife.90254) are described below.

The labels stand for the following.
B1: LINE1-mini (parent)
chain: GGCAGAGCUCAACACAGCGUGGCAAAGUGGCUGUGGCUAGACUGCC

The source gives no read counts; variants with many changes may rest on few reads.

The variants in this data set derive from B1. In words: self-cleavage, relative activity (ratio to wild type); higher = more cleavage; in vitro, sequencing; the parent is a self-cleaving ribozyme.
As to GGCAGAGCUCAACACAGGGUAGAAACGUGGCUGUGGCUAGUCUGCC [C18G G21A C23A A26C A41U], the self-cleavage was determined as 0.11.
To GGCAGAGCUCAACACAGGGUGGCAAAGAGGCUGUGGCUAGACCGCC [C18G U28A U43C] belongs 0.08; to GGCAGAGCUCAACACAGGUUGGCAAUGUGGCUGUGGCUAGACUGCC [C18G G19U A26U], 0.23.
To GGCAGAGCUCAACACAGGGUGGCAAAGUGGCUAUGGUUAGACUGCU [C18G G33A C37U C46U] belongs 0.07.
For the variant GGCAGAGCUCAACACAGGGUGGCAAAGUGGCUGUGGCAAGACCGCC [C18G U38A U43C], the self-cleavage was found to be 0.07.
For the variant GGCAGAGCUCAACACAGGCUGGCAAAGUAGCUGUGGCUAGACUGCC [C18G G19C G29A], the self-cleavage came to 1.14.
As to GGCAGAGCUCAACACAGAGAGGCAAAGUGGCUGUGGCUAGACCGCC [C18A U20A U43C], the self-cleavage was 0.02.
Turning to GGCAGAGCUCAACACAGAGUGGCAAAGUGGCAGAGGCUAGAAUGCC [C18A U32A U34A C42A], the self-cleavage is 0.12.
As to GGCAGAGCUCAACACAGAGUGGCAAAGUGGCUGUAGCGAGGUUGCC [C18A G35A U38G A41G C42U], the self-cleavage worked out at 0.02.
Regarding GGCAGAGCUCAACACAGGGUCGCAAAAUGGCUGUGGCUAGACAGCC [C18G G21C G27A U43A], the self-cleavage came out at 0.1.
On to GGCAGAGCUCAACACAGGGUGGCAAAGGGGCUGUGGCUAGACUCGC [C18G U28G G44C C45G], for which the self-cleavage came out at 0.04.
On to GGCAGAGCUCAACACAGGAUGGCGAAGUGGCUGUGGCUAGACUGCC [C18G G19A A24G], for which the self-cleavage was determined as 0.81.
As to GGCAGAGCUCAACACAGAGUGGCAAAGUGUCUGUGGGUAGAUUGCC [C18A G30U C37G C42U], the self-cleavage was 0.06.
To GGCAGAGCUCAACACAGGGUGGGACAGAGGCUGUGGCUAGUCUGCC [C18G C23G A25C U28A A41U] belongs 0.02; to GGCAGAGCUCAACACAGGGUGGCCAAGUGGCUGUGGCUAGUCUGCC [C18G A24C A41U], 0.04; to GGCAGAGCUCAACACAGAGUGUCAAAGUAGCUGUGGCUAGACUGCC [C18A G22U G29A], 2.53.
With GGCAGAGCUCAACACAGAGUGUCAAAGUUGCUGUGGCUAGACUGCC [C18A G22U G29U], the self-cleavage came to 1.1.
To GGCAGAGCUCAACACAGAGCGGCAAAGUGGCUGUGGCUAGCCUGCC [C18A U20C A41C] belongs 0.02; to GGCAGAGCUCAACACAGAGUGGCAAAGUGGCUGUGGCUACAUUGCC [C18A G40C C42U], 0.03; to GGCAGAGCUCAACACAGUGUGGCAAAGUGGAUGUGGCUAGGCCGCC [C18U C31A A41G U43C], 0.
Consider GGCAGAGCUCAACACAGAGUGGCAAAGUGGCUGUGGCUAGACAGAC [C18A U43A C45A], for which the self-cleavage is 0.04.
As to GGCAGAGCUCAACACAGAGUGGCAAAGUGGCAGUAGCUAGAGUGCC [C18A U32A G35A C42G], the self-cleavage amounted to 0.03.
Take GGCAGAGCUCAACACAGAGUGGCAAAGUGUCUGUGGCUUGACUGCC [C18A G30U A39U]: the self-cleavage is 0.54.
For GGCAGAGCUCAACACAGGAUGGCAAAGUGGCUGUGGCUAUACUGCC [C18G G19A G40U], the self-cleavage was 0.06.
GGCAGAGCUCAACACAGGUUGGCAAAGUGGCCGUGGCUAGACUCCC [C18G G19U U32C G44C]: the self-cleavage was 0.01.
For GGCAGAGCUCAACACAGGGUGGCAAAAUGGCUGUGGCUAGAGUGCU [C18G G27A C42G C46U], the self-cleavage is 0.01.
Regarding GGCAGAGCUCAACACAGGGUGGCAAAGUGGCUGUGGCUAUACUGAC [C18G G40U C45A], the self-cleavage worked out at 0.06.
The result for GGCAGAGCUCAACACAGUGUGGCGAAGUGAAGGUGUCUAGACUGCC [C18U A24G G30A C31A U32G G36U] reads 0.03.
Take GGCAGAGCUCAACACAGGGUGGCAAAGUGGUUGUGGCUAGCCUGCC [C18G C31U A41C]: the self-cleavage was found to be 0.01.
As to GGCAGAGCUCAACACAGGGUGGCAAAGUGGCUGUUGAUAGACGGCC [C18G G35U C37A U43G], the self-cleavage was found to be 0.07.
Take GGCAGAGCUCAACACAGAGUGGCAAAAUGCCUGUGGCUAGACUGCA [C18A G27A G30C C46A]: the self-cleavage came out at 0.64.
To GGCAGAGCUCAACACAGAGUGGCAAAGUCGCUGUUGCUAGACUGCC [C18A G29C G35U] belongs 0.07; to GGCAGAGCUCAACACAGGGUAGCAAAGUGUCUGUGGCUAGACUGCC [C18G G21A G30U], 0.68.
Turning to GGCAGAGCUCAACACAGGCUGACAAACUUGCUGUGGCUAGACUGCC [C18G G19C G22A G27C G29U], the self-cleavage came out at 1.29.
Consider GGCAGAGCUCAACACAGGGUGGCAAAGUGGUUGUGGCUAUUCUGCC [C18G C31U G40U A41U], for which the self-cleavage is 0.
With GGCAGAGCUCAACACAGGGUGGCAAAGUGACUGUGGCUAGACAGCC [C18G G30A U43A], the self-cleavage is 0.06.
Take GGCAGAGCUCAACACAGGGUGGCUAAGUGGCUGUGGCUUGACUGCC [C18G A24U A39U]: the self-cleavage is 0.1.
To GGCAGAGCUCAACACAGUGUGGUAAAGUGGCUGUGGCACGACUGUC [C18U C23U U38A A39C C45U] belongs 0.84; to GGCAGAGCUCAACACAGGGUGGCAAAGUGGCUGUGGCUACACUGUC [C18G G40C C45U], 0.06.
With GGCAGAGCUCAACACAGUGUGGCAAAGUGGCUGUGGGUCGACCGCC [C18U C37G A39C U43C], the self-cleavage came out at 0.01.
As for GGCAGAGCUCAACACAGGCUGGCAAAGUGGCUGUGGCUAGGCUGCC [C18G G19C A41G], the self-cleavage is 0.23.
Consider GGCAGAGCUCAACACAGAGUGUCAAAGUGGCUGUGGCUAUACUGCC [C18A G22U G40U], for which the self-cleavage was 0.08.
As to GGCAGAGCUCAACACAGGGUGACAAAGUGCCUGUGGUUAGACUGCC [C18G G22A G30C C37U], the self-cleavage turned out to be 0.02.
Take GGCAGAGCUCAACACAGGGUGCCAAAGUGGUUGUGUCUAGACUGCC [C18G G22C C31U G36U]: the self-cleavage is 0.
As for GGCAGAGCUCAACACAGGUUGGAAAGGUGGCUGUGGAUGGACUGCC [C18G G19U C23A A26G C37A A39G], the self-cleavage was found to be 0.01.
The result for GGCAGAGCUCAACACAGAGGGGUAAAGUGGCUGUGGCUAGACUGCC [C18A U20G C23U] reads 0.13.
With GGCAGAGCUCAACACAGGGUGGCAAAGAGGCUGAGGCUAGACUGCC [C18G U28A U34A], the self-cleavage came out at 0.01.
Turning to GGCAGAGCUCAACACAGAGUGGCAAACUGGAUAUGGCUAGAAUGCC [C18A G27C C31A G33A C42A], the self-cleavage is 0.01.
For the variant GGCAGAGCUCAACACAGAGCGACAAAGUGGCUGUGGCUAGACUGCC [C18A U20C G22A], the self-cleavage worked out at 0.04.
As for GGCAGAGCUCAACACAGUGUGGAAAAGCGGUUGUGGCUAGACUGCC [C18U C23A U28C C31U], the self-cleavage was 0.14.
The result for GGCAGAGCUCAACACAGUGUGGCAAAGUGGAUGUGGCUAGACAUCC [C18U C31A U43A G44U] reads 0.03.
To GGCAGAGCUCAACACAGGGUGGCAAAGUGGCUGUGGCUAGCGUGCC [C18G A41C C42G] belongs 0.04; to GGCAGAGCUCAACACAGGGGGGCAAAAUGGGUGUGGCUAGACUGCC [C18G U20G G27A C31G], 0.02.
With GGCAGAGCUCAACACAGGGAGGCAAAGUGGCUGUGGCGAGACUGCG [C18G U20A U38G C46G], the self-cleavage was 0.01.
On to GGCAGAGCUCAACACAGAGUGGCAAAGUGGCCCUGGUUAGACUGCC [C18A U32C G33C C37U], for which the self-cleavage is 0.02.
The result for GGCAGAGCUCAACACAGGGUGGCAAAGUGGCUGUGGCUGGGCUUCC [C18G A39G A41G G44U] reads 0.02.
